Test results: the supplement of paper PMC12423691
The other results are listed elsewhere or left out. Binding of human transcription factors and regulators to the viral nucleoprotein by AlphaScreen, crude cell-free proteins, amounts not normalised, one pass. Fold of the Venus control; higher = more signal. No active / inactive call. Single-pass screen; sequences are the whole Swiss-Prot entries looked up by name.

B1: NR1H3, Q13133 (protein)
chain: MSLWLGAPVPDIPPDSAVELWKPGAQDASSQAQGGSSCILREEARMPHSAGGTAGVGLEAAEPTALLTRAEPPSEPTEIRPQKRKKGPAPKMLGNELCSVCGDKASGFHYNVLSCEGCKGFFRRSVIKGAHYICHSGGHCPMDTYMRRKCQECRLRKCRQAGMREECVLSEEQIRLKKLKRQEEEQAHATSLPPRASSPPQILPQLSPEQLGMIEKLVAAQQQCNRRSFSDRLRVTPWPMAPDPHSREARQQRFAHFTELAIVSVQEIVDFAKQLPGFLQLSREDQIALLKTSAIEVMLLETSRRYNPGSESITFLKDFSYNREDFAKAGLQVEFINPIFEFSRAMNELQLNDAEFALLIAISIFSADRPNVQDQLQVERLQHTYVEALHAYVSIHHPHDRLMFPRMLMKLVSLRTLSSVHSEQVFALRLQDKKLPPLLSEIWDVHE
B2: SOX8, P57073 (protein)
chain: MLDMSEARSQPPCSPSGTASSMSHVEDSDSDAPPSPAGSEGLGRAGVAVGGARGDPAEAADERFPACIRDAVSQVLKGYDWSLVPMPVRGGGGGALKAKPHVKRPMNAFMVWAQAARRKLADQYPHLHNAELSKTLGKLWRLLSESEKRPFVEEAERLRVQHKKDHPDYKYQPRRRKSAKAGHSDSDSGAELGPHPGGGAVYKAEAGLGDGHHHGDHTGQTHGPPTPPTTPKTELQQAGAKPELKLEGRRPVDSGRQNIDFSNVDISELSSEVMGTMDAFDVHEFDQYLPLGGPAPPEPGQAYGGAYFHAGASPVWAHKSAPSASASPTETGPPRPHIKTEQPSPGHYGDQPRGSPDYGSCSGQSSATPAAPAGPFAGSQGDYGDLQASSYYGAYPGYAPGLYQYPCFHSPRRPYASPLLNGLALPPAHSPTSHWDQPVYTTLTRP
B3: ZNF280D, Q6N043 (protein)
chain: MGDNPFQPKSNSKMAELFMECEEEELEPWQKKVKEVEDDDDDEPIFVGEISSSKPAISNILNRVNPSSYSRGLKNGALSRGITAAFKPTSQHYTNPTSNPVPASPINFHPESRSSDSSVIVQPFSKPGYITNSSRVVSNKSSELLFDLTQDTGLSHYQGGPTLSMAGMSESSFLSKRPSTSEVNNVNPKKPKPSESVSGANSSAVLPSVKSPSVTSSQAMLAKGTNTSSNQSKNGTPFPRACPKCNIHFNLLDPLKNHMKYCCPDMINNFLGLAKTEFSSTVNKNTTIDSEKGKLIMLVNDFYYGKHEGDVQEEQKTHTTFKCFSCLKILKNNIRFMNHMKHHLELEKQSSESWENHTTCQHCYRQFPTPFQLQCHIESTHTPHEFSTICKICELSFETEHVLLQHMKDNHKPGEMPYVCQVCNYRSSSFSDVETHFRTSHENTKNLLCPFCLKVIKIATPYMHHYMKHQKKGIHRCTKCRLQFLTCKEKMDHKTQHHRTFIKPKQLEGLPPGTKVTIRASVGPLQSGASPTPSISASASTLQLSPPRTKNITAKNPAKSNTSKPNTVKSNASKPNTSKPNGSKSKYKPKISNMQKKQSTLASSNKKSKVNTALRNLRYRRGIHKCIECCSEIKDFANHFPTYVHCSFCRYNTSCSKAYVNHMMSFHSNRPSKRFCIFKKHSENLRGITLVCLNCDFLSDVSGLDNMATHLSQHKTHTCQVVMQKVSVCIPTSEHLSELKKEAPAKEQEPVSKEIARPNMAERETETSNSESKQDKAASSKEKNGCNANSFEGSSTTKSEESITVSDKENETCLADQETGSKNIVSCDSNIGADKVEKKKQIQHVCQEMELKMCQSSENIILSDQIKDHNSSEARFSSKNIKDLRLASDNVSIDQFLRKRHEPESVSSDVSEQGSIHLEPLTPSEVLEYEATEILQKGSGDPSAKTDEVVSDQTDDIPGGNNPSTTEATVDLEDEKERS
B4: SRY, Q05066 (protein)
chain: MQSYASAMLSVFNSDDYSPAVQENIPALRRSSSFLCTESCNSKYQCETGENSKGNVQDRVKRPMNAFIVWSRDQRRKMALENPRMRNSEISKQLGYQWKMLTEAEKWPFFQEAQKLQAMHREKYPNYKYRPRRKAKMLPKNCSLLPADPASVLCSEVQLDNRLYRDDCTKATHSRMEHQLGHLPPINAASSPQQRDRYSHWTKL
B5: FOXN4, Q96NZ1 (protein)
chain: MIESDTSSIMSGIIRNSGQNHHPSPQEYRLLATTSDDDLPGDLQSLSWLTAVDVPRLQQMASGRVDLGGPCVPHPHPGALAGVADLHVGATPSPLLHGPAGMAPRGMPGLGPITGHRDSMSQFPVGGQPSSGLQDPPHLYSPATQPQFPLPPGAQQCPPVGLYGPPFGVRPPYPQPHVAVHSSQELHPKHYPKPIYSYSCLIAMALKNSKTGSLPVSEIYSFMKEHFPYFKTAPDGWKNSVRHNLSLNKCFEKVENKMSGSSRKGCLWALNLARIDKMEEEMHKWKRKDLAAIHRSMANPEELDKLISDRPESCRRPGKPGEPEAPVLTHATTVAVAHGCLAVSQLPPQPLMTLSLQSVPLHHQVQPQAHLAPDSPAPAQTPPLHALPDLSPSPLPHPAMGRAPVDFINISTDMNTEVDALDPSIMDFALQGNLWEEMKDEGFSLDTLGAFADSPLGCDLGASGLTPASGGSDQSFPDLQVTGLYTAYSTPDSVAASGTSSSSQYLGAQGNKPIALL
B6: SATB1, Q01826 (protein)
chain: MDHLNEATQGKEHSEMSNNVSDPKGPPAKIARLEQNGSPLGRGRLGSTGAKMQGVPLKHSGHLMKTNLRKGTMLPVFCVVEHYENAIEYDCKEEHAEFVLVRKDMLFNQLIEMALLSLGYSHSSAAQAKGLIQVGKWNPVPLSYVTDAPDATVADMLQDVYHVVTLKIQLHSCPKLEDLPPEQWSHTTVRNALKDLLKDMNQSSLAKECPLSQSMISSIVNSTYYANVSAAKCQEFGRWYKHFKKTKDMMVEMDSLSELSQQGANHVNFGQQPVPGNTAEQPPSPAQLSHGSQPSVRTPLPNLHPGLVSTPISPQLVNQQLVMAQLLNQQYAVNRLLAQQSLNQQYLNHPPPVSRSMNKPLEQQVSTNTEVSSEIYQWVRDELKRAGISQAVFARVAFNRTQGLLSEILRKEEDPKTASQSLLVNLRAMQNFLQLPEAERDRIYQDERERSLNAASAMGPAPLISTPPSRPPQVKTATIATERNGKPENNTMNINASIYDEIQQEMKRAKVSQALFAKVAATKSQGWLCELLRWKEDPSPENRTLWENLSMIRRFLSLPQPERDAIYEQESNAVHHHGDRPPHIIHVPAEQIQQQQQQQQQQQQQQQAPPPPQPQQQPQTGPRLPPRQPTVASPAESDEENRQKTRPRTKISVEALGILQSFIQDVGLYPDEEAIQTLSAQLDLPKYTIIKFFQNQRYYLKHHGKLKDNSGLEVDVAEYKEEELLKDLEESVQDKNTNTLFSVKLEEELSVEGNTDINTDLKD

target: nucleoprotein N of Crimean-Congo hemorrhagic fever virus; test: AlphaScreen luminescence signal relative to Venus negative control (fold); higher = stronger binding to CCHFV N
Protocol: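 AlphaScreen binding of cell-free made, FLAG-GST-tagged human transcription factors and regulators (crude translation products) to biotinylated N protein; signal as fold of the FLAG-GST-Venus control. One pass.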

Binder	AlphaScreen luminescence signal
B1	2.79
B2	1.77
B3	2.88
B4	2.56
B5	2.42
B6	1.67
